# From patent US20240254223A1 (NOVIMMUNE, published 2024)
# T1: high affinity trimeric IL-2R (IL-2Rα, IL-2Rβ and IL-2Rγ) on HEK-Blue IL-2 cells (UniProt P01589 22-272; P14784 27-551; P31785 23-369)
# T1 sequence (looked up) 1: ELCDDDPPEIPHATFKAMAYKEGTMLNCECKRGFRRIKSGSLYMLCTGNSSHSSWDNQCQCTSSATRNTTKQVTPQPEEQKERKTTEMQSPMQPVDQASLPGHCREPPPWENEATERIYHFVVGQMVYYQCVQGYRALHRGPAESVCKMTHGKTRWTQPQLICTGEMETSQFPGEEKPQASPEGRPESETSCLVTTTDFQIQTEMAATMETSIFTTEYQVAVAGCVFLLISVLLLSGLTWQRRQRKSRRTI
# T1 sequence (looked up) 2: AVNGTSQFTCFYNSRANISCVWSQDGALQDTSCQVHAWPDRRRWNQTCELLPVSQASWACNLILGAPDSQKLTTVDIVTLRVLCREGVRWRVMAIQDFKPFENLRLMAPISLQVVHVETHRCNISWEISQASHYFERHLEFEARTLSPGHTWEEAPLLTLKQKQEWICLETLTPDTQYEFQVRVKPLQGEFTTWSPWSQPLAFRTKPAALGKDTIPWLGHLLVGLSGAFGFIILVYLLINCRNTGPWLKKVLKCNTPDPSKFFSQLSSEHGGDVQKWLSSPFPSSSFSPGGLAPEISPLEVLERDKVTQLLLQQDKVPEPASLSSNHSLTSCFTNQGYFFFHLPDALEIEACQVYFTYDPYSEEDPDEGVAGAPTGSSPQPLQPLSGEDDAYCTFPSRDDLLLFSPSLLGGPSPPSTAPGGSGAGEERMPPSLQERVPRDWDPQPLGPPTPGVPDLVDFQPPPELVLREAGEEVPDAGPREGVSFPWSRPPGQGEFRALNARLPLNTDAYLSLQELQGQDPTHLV
# T1 sequence (looked up) 3: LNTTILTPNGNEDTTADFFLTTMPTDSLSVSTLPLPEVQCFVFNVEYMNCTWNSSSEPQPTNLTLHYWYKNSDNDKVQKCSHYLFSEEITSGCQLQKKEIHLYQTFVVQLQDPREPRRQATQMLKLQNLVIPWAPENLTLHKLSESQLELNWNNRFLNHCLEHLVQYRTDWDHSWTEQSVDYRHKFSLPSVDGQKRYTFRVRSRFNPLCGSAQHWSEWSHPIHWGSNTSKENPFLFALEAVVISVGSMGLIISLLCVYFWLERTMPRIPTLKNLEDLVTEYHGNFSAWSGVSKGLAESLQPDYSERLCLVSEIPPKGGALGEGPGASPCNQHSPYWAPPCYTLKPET
# T2: low-moderate affinity dimeric IL-2R (IL-2Rβ and IL-2Rγ) on HEK-Blue CD122/CD132 cells (UniProt P14784 27-551; P31785 23-369, limits assumed)
# T2 sequence (looked up) 1: T1 sequence (looked up) 2
# T2 sequence (looked up) 2: T1 sequence (looked up) 3
# B1: pNOVI V2K K91_M1_IL-2Rα_1_238_CM1_IL-2 C125S_21_153_CM1 VKCK IL-2Rβ_1_239_CM1_VHCH (antibody, human IgG1, kappa)
# light: ELCDDDPPEIPHATFKAMAYKEGTMLNCECKRGFRRIKSGSLYMLCTGNSSHSSWDNQCQCTSSATRNTTKQVTPQPEEQKERKTTEMQSPMQPVDQASLPGHCREPPPWENEATERIYHFVVGQMVYYQCVQGYRALHRGPAESVCKMTHGKTRWTQPQLICTGEMETSQFPGEEKPQASPEGRPESETSCLVTTTDFQIQTEMAATMETSIFTTEGGGGSVHMPLGFLGPGGGGS[about 150 residues with changes left out]GGGGSVHMPLGFLGPGGSDIQMTQSPSSLSASVGDRVTITCNVDQVIANWLNWYQQKPGKAPKLLIYAASSLQSGVPSRFSGSGSGTDFTLTISSLQPEDFATYYCQQMHPRAPKQFGQGTKVEIKRTVAAPSVFIFPPSDEQLKSGTASVVCLLNNFYPREAKVQWKVDNALQSGNSQESVTEQDSKDSTYSLSSTLTLSKADYEKHKVYACEVTHQGLSSPVTKSFNRGEC
# heavy: AVNGTSQFTCFYNSRANISCVWSQDGALQDTSCQVHAWPDRRRWNQTCELLPVSQASWACNLILGAPDSQKLTTVDIVTLRVLCREGVRWRVMAIQDFKPFENLRLMAPISLQVVHVETHRCNISWEISQASHYFERHLEFEARTLSPGHTWEEAPLLTLKQKQEWICLETLTPDTQYEFQVRVKPLQGEFTTWSPWSQPLAFRTKPAALGKDGGGGSVHMPLGFLGPGGS[about 120 residues left out][about 100 residues left out][human IgG1 Fc left out]
# notes: masked K91 fusion with IL-2 C125S, uncleaved; also called n770; construct No 770
# B2: pNOVI V2K K91_M3_IL-2Rα_1_238_CM1_IL-2 D20T_21_153_CM1 VKCK IL-2Rβ_1_239_CM1_VHCH (antibody, human IgG1, kappa)
# light: ELCDDDPPEIPHATFKAMAYKEGTMLNCECKRGFRRIKSGSLYMLCTGNSSHSSWDNQCQCTSSATRNTTKQVTPQPEEQKERKTTEMQSPMQPVDQASLPGHCREPPPWENEATERIYHFVVGQMVYYQCVQGYRALHRGPAESVCKMTHGKTRWTQPQLICTGEMETSQFPGEEKPQASPEGRPESETSCLVTTTDFQIQTEMAATMETSIFTTEGGGGSVHMPLGFLGPGGGGS[about 150 residues with changes left out]GGGGSVHMPLGFLGPGGSDIQMTQSPSSLSASVGDRVTITCNVDQVIANWLNWYQQKPGKAPKLLIYAASSLQSGVPSRFSGSGSGTDFTLTISSLQPEDFATYYCQQMHPRAPKQFGQGTKVEIKRTVAAPSVFIFPPSDEQLKSGTASVVCLLNNFYPREAKVQWKVDNALQSGNSQESVTEQDSKDSTYSLSSTLTLSKADYEKHKVYACEVTHQGLSSPVTKSFNRGEC
# heavy: AVNGTSQFTCFYNSRANISCVWSQDGALQDTSCQVHAWPDRRRWNQTCELLPVSQASWACNLILGAPDSQKLTTVDIVTLRVLCREGVRWRVMAIQDFKPFENLRLMAPISLQVVHVETHRCNISWEISQASHYFERHLEFEARTLSPGHTWEEAPLLTLKQKQEWICLETLTPDTQYEFQVRVKPLQGEFTTWSPWSQPLAFRTKPAALGKDGGGGSVHMPLGFLGPGGS[about 120 residues left out][about 100 residues left out][human IgG1 Fc left out]
# notes: masked K91 fusion with IL-2 D20T, uncleaved; also called n790; construct No 790
# B3: pNOVI V2K K91_G3_IL-2Rγ_1_262_CM1_IL-2_21_153_CM1 VKCK_IL-2Rα_1_238_CM1_VHCH (antibody, human IgG1, kappa)
# light: LNTTILTPNGNEDTTADFFLTTMPTDSLSVSTLPLPEVQCFVFNVEYMNCTWNSSSEPQPTNLTLHYWYKNSDNDKVQKCSHYLFSEEITSGCQLQKKEIHLYQTFVVQLQDPREPRRQATQMLKLQNLVIPWAPENLTLHKLSESQLELNWNNRFLNHCLEHLVQYRTDWDHSWTEQSVDYRHKFSLPSVDGQKRYTFRVRSRFNPLCGSAQHWSEWSHPIHWGSNTSKENPFLFALEAGGGGSVHMPLGFLGPGGGGS[about 150 residues left out]GGGGSVHMPLGFLGPGGSDIQMTQSPSSLSASVGDRVTITCNVDQVIANWLNWYQQKPGKAPKLLIYAASSLQSGVPSRFSGSGSGTDFTLTISSLQPEDFATYYCQQMHPRAPKQFGQGTKVEIKRTVAAPSVFIFPPSDEQLKSGTASVVCLLNNFYPREAKVQWKVDNALQSGNSQESVTEQDSKDSTYSLSSTLTLSKADYEKHKVYACEVTHQGLSSPVTKSFNRGEC
# heavy: ELCDDDPPEIPHATFKAMAYKEGTMLNCECKRGFRRIKSGSLYMLCTGNSSHSSWDNQCQCTSSATRNTTKQVTPQPEEQKERKTTEMQSPMQPVDQASLPGHCREPPPWENEATERIYHFVVGQMVYYQCVQGYRALHRGPAESVCKMTHGKTRWTQPQLICTGEMETSQFPGEEKPQASPEGRPESETSCLVTTTDFQIQTEMAATMETSIFTTEGGGGSVHMPLGFLGPGGS[about 120 residues left out][about 100 residues left out][human IgG1 Fc left out]
# notes: masked K91 fusion, uncleaved; also called n870; construct No 870
# B4: pNOVI V2K K91_G4_IL-2Rγ_1_262_IL-2_21_153_CM1 VKCK_IL-2Rα_1_238_CM1_VHCH (antibody, human IgG1, kappa)
# light: LNTTILTPNGNEDTTADFFLTTMPTDSLSVSTLPLPEVQCFVFNVEYMNCTWNSSSEPQPTNLTLHYWYKNSDNDKVQKCSHYLFSEEITSGCQLQKKEIHLYQTFVVQLQDPREPRRQATQMLKLQNLVIPWAPENLTLHKLSESQLELNWNNRFLNHCLEHLVQYRTDWDHSWTEQSVDYRHKFSLPSVDGQKRYTFRVRSRFNPLCGSAQHWSEWSHPIHWGSNTSKENPFLFALEAGGGGSGGGGS[about 150 residues left out]GGGGSVHMPLGFLGPGGSDIQMTQSPSSLSASVGDRVTITCNVDQVIANWLNWYQQKPGKAPKLLIYAASSLQSGVPSRFSGSGSGTDFTLTISSLQPEDFATYYCQQMHPRAPKQFGQGTKVEIKRTVAAPSVFIFPPSDEQLKSGTASVVCLLNNFYPREAKVQWKVDNALQSGNSQESVTEQDSKDSTYSLSSTLTLSKADYEKHKVYACEVTHQGLSSPVTKSFNRGEC
# heavy: ELCDDDPPEIPHATFKAMAYKEGTMLNCECKRGFRRIKSGSLYMLCTGNSSHSSWDNQCQCTSSATRNTTKQVTPQPEEQKERKTTEMQSPMQPVDQASLPGHCREPPPWENEATERIYHFVVGQMVYYQCVQGYRALHRGPAESVCKMTHGKTRWTQPQLICTGEMETSQFPGEEKPQASPEGRPESETSCLVTTTDFQIQTEMAATMETSIFTTEGGGGSVHMPLGFLGPGGS[about 120 residues left out][about 100 residues left out][human IgG1 Fc left out]
# notes: masked K91 fusion, uncleaved; also called n880; construct No 880
# Target: T1, high affinity trimeric IL-2R (IL-2Rα, …)
# Assay: cell-based or functional assay
"EC50 before cleavage IL-2, HEK Blue IL-2 αβγ reporter assay","EC50 ratio (BC/AC), HEK Blue IL-2 αβγ reporter assay",Binder
1.29 nM,75,B1
0.65 nM,18,B2
0.33 nM,29,B3
0.66 nM,17,B4

# Target: T2, low-moderate affinity dimeric IL-2R …
# Assay: cell-based or functional assay
"EC50 before cleavage IL-2, HEK Blue IL-2 βγ reporter assay","EC50 ratio (BC/AC), HEK Blue IL-2 βγ reporter assay",Binder
0.22 nM,19,B1
1.44 nM,19,B2
0.26 nM,10,B3
0.28 nM,12,B4

# Target: T3, CD47 at the surface of Peak cells (human, UniProt Q08722)
# T3 construct: whole, on cells; also called cell surface CD47
# Assay: flow cytometry, Peak cells, before cleavage
row,EC50,Binder
1,54.4 nM,B1
2,40.5 nM,B2
3,219 nM,B3
4,459 nM,B4

# Target: T4, His-tagged human CD47 (human, UniProt Q08722 part only, limits assumed)
# T4 construct: loaded on HIS1K biosensors at 2.5 µg/mL; also called target antigen; not shown: His tag
# Assay: BLI, His-CD47 on HIS1K sensor, antibody 15 µg/mL
row,Binding before cleavage (BLI),Binder
1,0.4 nm,B1
2,0.6 nm,B2
3,0.3 nm,B3
4,0.2 nm,B4

# Target: T3, CD47 at the surface of Peak cells
# Assay: flow cytometry, Peak cells; EC50 before / EC50 after cleavage
row,Binding recovery (BC/AC),Binder
1,106,B1
2,25,B2
3,170,B3
4,178,B4
